The list shows a part of the results.
Each sequence was assayed on PfHDP1 homeodomain (GST-tagged) (assay: gcPBM binding intensity (ln(normalized median fluorescence intensity)); higher = stronger DNA binding).
Procedure, shortened: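 An Agilent 4 × 180k array carrying primer-extended double-stranded 36-bp intergenic genomic probes and negative controls received GST-tagged P. falciparum DNA-binding domains expressed in E. coli, about 25 μg on average, for 1 h. The binding buffer contained 1× PBS, 1% milk, 0.2 mg/ml BSA, 0.5% salmon testes DNA and 0.03% Triton X-100. Binding intensity is the top Masliner-normalised natural-log median intensity across replicate spots of either probe orientation, read after Alexa488 anti-GST antibody staining and a 488 nm scan.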

Row | Sequence | gcPBM binding intensity (ln)
1 | AAATATTTTATACTTGCACACAAAATATATTAAAAT [CACACA_site8606] | 8.97
2 | TTTGTTTTTAATTTCGCACACACCTTGTGGAAAAAA [CACACA_site577] | 7.02
3 | AAAGGATTTATACTAGTGCAAAAATATAAAAATATA | 9.12
4 | AATAATAAAGTGAACACACACATATAACATCTATAT [CACACA_site7868] | 6.51
5 | AATGAATGTAAGAAAATACACACTAGTATAGTAACA [CACACA_site1955] | 6.63
6 | TTGGAAAAAGTGAAATGTACATATATATTTATTATT [XGTACX_site6946] | 6.49
7 | GAAGTTTTTTAAAGATGTACTTTTTAAAAATAATCT [XGTACX_site263] | 6.13
8 | TTTGGCTAGTTAGGCCGTACATGTAAATAATATATA [XGTACX_site1138] | 6.99
9 | TCCATATATGCCTTATGTACATATACCAAATTAACC [XGTACX_site6513] | 7.11
10 | TAGCCATTTTTATATTGTACTTATATAATCACATTT [XGTACX_site4407] | 6.6
11 | ATAAAAAAAAATAACACACAGACATAAGAATAAATA [CACACA_site4162] | 6.88
12 | ATATAAGAAAAGCACACACACACAAAAAAAAAAAAA [CACACA_site2827] | 6.35
13 | GACCACTTTAGGATTTGTACACATATTATATATGCA [XGTACX_site6579] | 6.97
14 | TACACAAACAAACACACACACACACCCCCACAAAAA [CACACA_site2428] | 7.92
15 | ATTAAAAAAAATATATATGTATAAAACAAGCAAAAT [XGTACX_negctrl_site474] | 6.99
16 | TTTTGATAGAAGTGTTCTAGGAATTCAACTGTAATA [GTGCAC_negctrl_site585] | 6.17
17 | TATAATAATAAAAACACACACGTTGATTGTATTAGC [CACACA_site5336] | 6.48
18 | TATAATGATAATAATAGTACACATTAGAACGGGAGG [XGTACX_site2563] | 6.84
19 | ATAATATTATTTAAAAGTACTAACAAAAGAATATTA [XGTACX_site4989] | 6.41
20 | CCTATTATTTCTAAAACACACAAAAATATAAAAGAA [CACACA_site2708] | 6.98
21 | TCTTTTTTTTATTATATCATTGAAATGTTAAAACGA [XGTACX_negctrl_site473] | 6.42
22 | ATTAAAAAAATTGGCACACATAAAAATATATAAAAA [CACACA_site2748] | 6.65

Row | Sequence | gcPBM binding intensity (ln)
23 | AACAGATATGAATAGAAAAAAAAAAATGGCCCATAT [TGCATGCA_negctrl_site443] | 5.92
24 | GTTTTTAATGTTTTGACATGCAATATTAAAAATAAT [TGCATGCA_site174] | 6.57
25 | TGAAAAAAAAAATACACACACGAGTTGTTATACATA [CACACA_site7486] | 6.07
26 | ATATACATATATATATGTACTTATTTATTTATTTAT [XGTACX_site2532] | 6.55
27 | AAAAAGTGACTCCTTACACACTTTACATAATTTAGG [CACACA_site8176] | 6.32
28 | CATACATACATACATACATGCATACATACATACATA [TGCATGCA_site218] | 7.46
29 | TTTTTTTTCATTTTATGTACACATAATTTAATATAT [XGTACX_site5768] | 6.91
30 | ATATATATATATATATGTACATATGTTTGTTTCCGC [XGTACX_site5167] | 9.16
31 | GCAATTTTTTTTAAGAGTACTAATATATTATAGTGG [XGTACX_site7316] | 6.37
32 | TTTTTTTAATAGTGTGCACACAATATACAGAAAAAA [CACACA_site8399] | 11
33 | TATATATATGAACAATGTACGTATAATATTTTTATT [XGTACX_site7561] | 6.26
34 | GATCTATACTATAATACACACATTTGATGAATGTAA [CACACA_site6163] | 6.75
35 | ATATATATATATATATGTACACATAAAAAGAAAGAA [XGTACX_site1603] | 9.25
36 | AACATTATATATTGCAGTACTCCCATATGTTGATAA [XGTACX_site3119] | 7.01
37 | TATATACCTATATACACACACATATATTATAGATAT [CACACA_site6266] | 6.56
38 | TTTAGTTGTGAGAATTGTACATATTTTCCTTTTACC [XGTACX_site7291] | 6.89
39 | CTGTCTGCAGATATGGTGCATTTGTAAGATCTTACA [GTGCAC_site9870] | 10.3
40 | TTCATAAAATGTGTCTGTACGTAAATGTATTACACT [XGTACX_site3179] | 6.29
41 | TTTATATTTATGATGGGTACACAAAATTTTACCCAT [XGTACX_site1504] | 6.52
42 | AATGTATAAATCCATACACACATAAATTTTAATAAT [CACACA_site2363] | 6.42
43 | TATTTTTATAAGTAAAAGGAGCACAGTTAAAGGATC [XGTACX_negctrl_site362] | 7.62
44 | TTATTATTAAAAAAAAGTACAGAATTGAATAATACA [XGTACX_site651] | 6.55

— the supplement of paper PMC11417369
